# Experimental data reported in the supplement of paper PMC8728848.
# The other results are listed elsewhere or left out.
# B1: AFCNVH (Aspergillus fumigatus) (protein)
# chain: MSLRGFHTTCDTIVLKDKHILSSRCKRPDGTYSFSEIDLNDCLGNNNGKFVWGGESFVDSASQVNLALEGGEGRPMLHAQLNDWHGSVQSASVNLGECIQNEAGGLEYMHC
# Assays:
# Assay in all cases: glycan array binding signal (z-score within array); higher = stronger binding
# Settings in all cases: glycan notation: IUPAC condensed, linker removed
# [1] = molecular target: Gal(b1-4)GalNAc(b1-3)[Fuc(a1-2)]Gal(b1-4)GlcNAc
# Method in brief: (§1)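 Glycan array data were curated from 3228 arrays in the Consortium for Functional Glycomics database and kept only where the protein sequence was available. Glycan names were converted to IUPAC-condensed notation, and columns mapping to the same glycan were averaged. The binding signal is a within-array Z-score, averaged across arrays of the same protein sequence at different concentrations or buffers and across linkers. Negative Z-scores can be read as non-binding.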
# Gal(b1-4)Glc = molecular target: Gal(b1-4)Glc
# Method in brief: as §1
# Gal(b1-4)Glc6S = molecular target: Gal(b1-4)Glc6S
# Method in brief: as §1
# Gal(b1-4)GlcNAc = molecular target: Gal(b1-4)GlcNAc
# Method in brief: as §1
# [2] = molecular target: Gal(b1-4)GlcNAc(a1-6)Gal(b1-4)GlcNAc
# Method in brief: as §1
# Gal(b1-4)GlcNAc(b1-2)Man = molecular target: Gal(b1-4)GlcNAc(b1-2)Man
# Method in brief: as §1
# [3] = molecular target: Gal(b1-4)GlcNAc(b1-2)Man(a1-3)Man(b1-4)GlcNAc(b1-4)GlcNAc
# Method in brief: as §1
# [4] = molecular target: Gal(b1-4)GlcNAc(b1-2)Man(a1-3)[Gal(b1-4)GlcNAc(b1-2)Man(a1-6)]Man(b1-4)GlcNAc(b1-4)GlcNAc
# Method in brief: as §1
# [5] = molecular target: Gal(b1-4)GlcNAc(b1-2)Man(a1-3)[Gal(b1-4)GlcNAc(b1-2)Man(a1-6)]Man(b1-4)GlcNAc(b1-4)[Fuc(a1-6)]GlcNAc
# Method in brief: as §1
# [6] = molecular target: Gal(b1-4)GlcNAc(b1-2)Man(a1-3)[Gal(b1-4)GlcNAc(b1-2)Man(a1-6)][Gal(b1-4)GlcNAc(b1-4)]Man(b1-4)GlcNAc(b1-4)[Fuc(a1-6)]GlcNAc
# Method in brief: as §1
# [7] = molecular target: Gal(b1-4)GlcNAc(b1-2)Man(a1-3)[Gal(b1-4)GlcNAc(b1-2)Man(a1-6)][GlcNAc(b1-4)]Man(b1-4)GlcNAc(b1-4)[Fuc(a1-6)]GlcNAc
# Method in brief: as §1
# [8] = molecular target: Gal(b1-4)GlcNAc(b1-2)Man(a1-3)[GlcNAc(b1-2)Man(a1-6)]Man(b1-4)GlcNAc(b1-4)GlcNAc
# Method in brief: as §1
# [9] = molecular target: Gal(b1-4)GlcNAc(b1-2)Man(a1-3)[GlcNAc(b1-4)][Gal(b1-4)GlcNAc(b1-2)Man(a1-6)]Man(b1-4)GlcNAc(b1-4)GlcNAc
# Method in brief: as §1
# [10] = molecular target: Gal(b1-4)GlcNAc(b1-2)Man(a1-3)[Man(a1-6)]Man(b1-4)GlcNAc(b1-4)GlcNAc
# Method in brief: as §1
# [11] = molecular target: Gal(b1-4)GlcNAc(b1-2)Man(a1-6)Man(b1-4)GlcNAc(b1-4)GlcNAc
# Method in brief: as §1
# [12] = molecular target: Gal(b1-4)GlcNAc(b1-2)Man(a1-6)[GlcNAc(b1-2)Man(a1-3)]Man(b1-4)GlcNAc(b1-4)GlcNAc
# Method in brief: as §1
# [13] = molecular target: Gal(b1-4)GlcNAc(b1-2)Man(a1-6)[Man(a1-3)]Man(b1-4)GlcNAc(b1-4)GlcNAc
# Method in brief: as §1
# [14] = molecular target: Gal(b1-4)GlcNAc(b1-2)[Gal(b1-4)GlcNAc(b1-4)]Man(a1-3)[Gal(b1-4)GlcNAc(b1-2)Man(a1-6)]Man(b1-4)GlcNAc(b1-4)GlcNAc
# Method in brief: as §1
# [15] = molecular target: Gal(b1-4)GlcNAc(b1-2)[Gal(b1-4)GlcNAc(b1-4)]Man(a1-3)[Gal(b1-4)GlcNAc(b1-2)[Gal(b1-4)GlcNAc(b1-6)]Man(a1-6)]Man(b1-4)GlcNAc(b1-4)GlcNAc
# Method in brief: as §1
# [16] = molecular target: Gal(b1-4)GlcNAc(b1-2)[Gal(b1-4)GlcNAc(b1-4)]Man(a1-3)[GlcNAc(b1-4)][Gal(b1-4)GlcNAc(b1-2)Man(a1-6)]Man(b1-4)GlcNAc(b1-4)GlcNAc
# Method in brief: as §1
# [17] = molecular target: Gal(b1-4)GlcNAc(b1-2)[Gal(b1-4)GlcNAc(b1-4)]Man(a1-3)[GlcNAc(b1-4)][Gal(b1-4)GlcNAc(b1-2)[Gal(b1-4)GlcNAc(b1-6)]Man(a1-6)]Man(b1-4)GlcNAc(b1-4)GlcNAc
# Method in brief: as §1
# [18] = molecular target: Gal(b1-4)GlcNAc(b1-2)[Gal(b1-4)GlcNAc(b1-6)]Man(a1-6)[Gal(b1-4)GlcNAc(b1-2)Man(a1-3)]Man(b1-4)GlcNAc(b1-4)GlcNAc
# Method in brief: as §1
binder,measurement,setting,value
B1,glycan array binding signal (z-score),[1],-0.351
same,glycan array binding signal (z-score),Gal(b1-4)Glc,-0.293
same,glycan array binding signal (z-score),Gal(b1-4)Glc6S,-0.545
same,glycan array binding signal (z-score),Gal(b1-4)GlcNAc,-0.134
same,glycan array binding signal (z-score),[2],-0.232
same,glycan array binding signal (z-score),Gal(b1-4)GlcNAc(b1-2)Man,-0.309
same,glycan array binding signal (z-score),[3],0.697
same,glycan array binding signal (z-score),[4],-0.443
same,glycan array binding signal (z-score),[5],-0.391
same,glycan array binding signal (z-score),[6],-0.023
same,glycan array binding signal (z-score),[7],0.634
same,glycan array binding signal (z-score),[8],-0.554
same,glycan array binding signal (z-score),[9],-0.072
same,glycan array binding signal (z-score),[10],-0.234
same,glycan array binding signal (z-score),[11],-0.488
same,glycan array binding signal (z-score),[12],-0.378
same,glycan array binding signal (z-score),[13],-0.189
same,glycan array binding signal (z-score),[14],-0.182
same,glycan array binding signal (z-score),[15],-0.296
same,glycan array binding signal (z-score),[16],-0.411
same,glycan array binding signal (z-score),[17],-0.362
same,glycan array binding signal (z-score),[18],-0.437
